± gives the standard deviation of the averaged measurements. This is one part of the list.

This test has as its system PfAP2-LT AP2 domain (GST-tagged). The test can be described thus: gcPBM binding intensity (ln(normalized median fluorescence intensity)); higher = stronger DNA binding. In a few lines: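 Using an Agilent 4 × 180k array, primer-extended double-stranded 36-bp intergenic genomic probes and negative controls were exposed for 1 h to GST-fused P. falciparum DNA-binding domains expressed in E. coli. Binding was carried out in 1× PBS with 1% milk, 0.2 mg/ml BSA, 0.5% salmon testes DNA and 0.03% Triton X-100, and protein was detected with Alexa488 anti-GST antibody and a 488 nm scan. Binding intensity is the highest Masliner-normalised natural-log median intensity across replicate spots of either probe orientation.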
Regarding “ATATAATAACATAACACACACATGTATTTATAGGTG [CACACA_site359]”, the “gcPBM binding intensity (ln)” value is 9.38 ± 0.3.
With “AAAAAAAAAAAAAAAACACACATATATATATAATAT [CACACA_site1159]” the figure was 8.96 ± 0.42; with GATAATCAGAATGGGGTGCAAAGAAAAAAAAAAAAA, 8.8 ± 0.61; with “TCTATTTATATGTATTGTACAATATAGATGTGTATT [XGTACX_site5646]”, 9.01 ± 0.39.
With “CCTAAATAATATCTATCACACACGCATATATACATA [CACACA_site8838]” the figure was 9.16 ± 0.35; with “TTATATTTATATTTATGTACATATTTTGTGTGAAAA [XGTACX_site2367]”, 8.74 ± 0.37.
With “AAATTAAAAATAATTACACACATAGAAAAATTATAT [CACACA_site2275]” the figure was 8.9 ± 0.45; with “GTAATACACAGACACACACACATACACATATTTATA [CACACA_site7313]”, 9.91 ± 0.39; with “TAGCTGTTCAAAAAATGTACATATATAATATATATA [XGTACX_site5842]”, 8.54 ± 0.38.
“ATATATATGCATTCAAGTACAAAAATATATGTTAAA [XGTACX_site910]”: the “gcPBM binding intensity (ln)” value amounted to 8.88 ± 0.4.
Consider “AGTGTATATAGAAACATACACACATATTAATTTTAC [CACACA_site3127]”, for which the “gcPBM binding intensity (ln)” value worked out at 8.99 ± 0.38.
For “TTCTATATATAATATTGTACTTAATTATTTTATTTT [XGTACX_site2701]” the value was 8.72 ± 0.43.
For “TACACAAACGTTATACGTACACAGGTTTTTCTTTTA [XGTACX_site5427]” the value was 8.71 ± 0.49.
For “ATAATAAGAAAAAAAAAAAAAAAAAAAAAAAAAAAA [TGCATGCA_negctrl_site377]” the value was 8.18 ± 0.2; for “ATATTGAAATGTTAATAGAAATATATGGTTAAATTG [XGTACX_negctrl_site212]”, 8.51 ± 0.51; for “ATGTATATAAATAGGTGTACATATAAGGTGTTAAGC [XGTACX_site5465]”, 9.31 ± 0.52.
On to “ACCTCTCATATGTTATAAACAAAATGAAAATTTCAT [XGTACX_negctrl_site303]”, for which the “gcPBM binding intensity (ln)” value stood at 8.63 ± 0.33.
ATTTTATTTTATTAAGTGCAAAAAAAAAAAAAGAAA: the “gcPBM binding intensity (ln)” value was found to be 8.29 ± 0.5.
For “TGTACAATATAAGGAGCACACAAAAATGGATAAATA [CACACA_site8216]” the value was 9.18 ± 0.56; for “ATATGGCATAAAACATGTACATGTTCATAAATATAT [XGTACX_site1924]”, 9.02 ± 0.4; for “ATTATATCTATAATATGTACATATTATAATATATAT [XGTACX_site3211]”, 8.74 ± 0.38.
Regarding “AGAATTAAAATAATACGTACACACATGTATAATACA [XGTACX_site1878]”, the “gcPBM binding intensity (ln)” value worked out at 9.26 ± 0.42.
Take “AATTGTTAATGGTACGAACACACATATAAAGATGCA [CACACA_site2043]”: the “gcPBM binding intensity (ln)” value is 9.06 ± 0.37.
With “TATATATAAGAAAAAAGTACAGATATATATATATTC [XGTACX_site4788]” the figure was 8.87 ± 0.5; with “TATACAGACAGACACACACACATATATATATATATA [CACACA_site1734]”, 10.3 ± 0.13.
For “TTTTAAGAAAAAAAATGTACACATGAAAATAGTGAA [XGTACX_site5898]” the value was 8.38 ± 0.53; for “TGTTATATTATAACTACACACGTATTATGTTATATC [CACACA_site839]”, 9.15 ± 0.35.
For “AAATTTTCACTTCAAAAACACACGTATTTTTTTCCT [CACACA_site3813]” the value was 8.8 ± 0.47; for “GCTAGTTCATAAAATTGTACAAAAAAAAAAAAAAAA [XGTACX_site2223]”, 8.46 ± 0.42.
Regarding “AAAAAAAAAAAAAAAAGTACATGCCATATATTTTCA [XGTACX_site4580]”, the “gcPBM binding intensity (ln)” value is 8.62 ± 0.33.
For “TTTTTTATCTAATATTTTATAATTTTCATAAATTTG [GTGCAC_negctrl_site534]” the value was 8.34 ± 0.62; for “TAAATAATGTTAAACACACATACCGATATATAATTA [CACACA_site2711]”, 8.89 ± 0.42; for “AATAGAAACATTTTACATGTATATATAATTTTTTTT [XGTACX_negctrl_site190]”, 8.53 ± 0.46.
For “AAATAATCTATACACAACGTATAAGAATAATATATG [TGCATGCA_negctrl_site422]” the value was 8.8 ± 0.49; for “ATTTTTTTACAAAAATGTACACATGAAATATGTAAT [XGTACX_site1372]”, 8.69 ± 0.49; for “TAAAAGTATATATATACACACATAAATATATCTGTA [CACACA_site4537]”, 9.16 ± 0.3.
For “TGACAACATAGAGGGGCACACACATATATACATAAA [CACACA_site8550]” the value was 9.39 ± 0.56; for “TATTATTTTAGAATGCGTACTTATAAAATATTTTAT [XGTACX_site867]”, 8.6 ± 0.38.
As for “GTGGAATAATATATATGTACATATTTAAAATATTTA [XGTACX_site3499]”, the “gcPBM binding intensity (ln)” value is 8.64 ± 0.47.
Turning to “AATGGTCTTTTCAACACACGTACATAAAAATATTAT [CACACA_site2571]”, the “gcPBM binding intensity (ln)” value was determined as 8.79 ± 0.44.
With “TACTGTTATAAATGTGGTACTAATATTATACATATA [XGTACX_site5116]” the figure was 8.66 ± 0.45; with “GTGTGATGGTCCAATATACACACTTAAAAAAAAAAA [CACACA_site2426]”, 8.76 ± 0.46.
With “TTAAATTATTAGAGAGTGCATTATATATATTATACA [GTGCAC_site9711]” the figure was 8.45 ± 0.43; with “TCTTTAATGATGTGTACACAAGAAAACATTGTTAAG [CACACA_site5299]”, 8.8 ± 0.42.
For “AAAAATAAGAGCGTAGCACACACGCATTTTATAAAT [CACACA_site8147]” the value was 9.07 ± 0.36; for “TAGAAGCATCATTTTACACACATGCAAATGTAAAAT [CACACA_site1893]”, 9.04 ± 0.32; for “TACATACTAAAAAAATGTACTTGTATTGTTTTTTTA [XGTACX_site8357]”, 8.58 ± 0.34.
In the case of “GAAATATTTGTAAAAACATGCATGGTACTTTTAAAA [TGCATGCA_site6]”, the “gcPBM binding intensity (ln)” value is 8.8 ± 0.38.
For “ACATAAGAATTTTTATGTACTCATAATATTTTATAT [XGTACX_site2398]” the value was 8.57 ± 0.35; for “TTATTTAACGTATTCTCACACATATATATATATAAT [CACACA_site5226]”, 8.95 ± 0.42.
With “TTTCTATATGGATTTGCACACATAAAAATGCTTATA [CACACA_site8751]” the figure was 8.99 ± 0.37.
With “TATATATATATATACACATGCAAAAATTTTTAATTT [TGCATGCA_site82]” the figure was 9.24 ± 0.57.
As to “ATATATATATATATATGTACATATGTTAGGATCAAA [XGTACX_site8626]”, the “gcPBM binding intensity (ln)” value turned out to be 9.56 ± 0.042.
For “ATGACATATAAATATACACACATACGTAAGTATATT [CACACA_site5058]” the value was 9.06 ± 0.34; for “TTATTGAACTTTTATAAAACCTGTATTATTATCTCT [CACACA_negctrl_site767]”, 8.63 ± 0.59.
With “TTATATTAATAATAAAGTACAAAAAATCATATATAA [XGTACX_site799]” the figure was 8.6 ± 0.52.
For “TCCAGGCTACACTCTAGTACTCGTAGGGTTATGAGA [XGTACX_site4945]” the value was 8.69 ± 0.5; for “TATTTCTTATTACATACACACATATACATATATGAC [CACACA_site3201]”, 9.05 ± 0.31; for “AAAAAATTCAAAATCACACATAAAAAAGGACACATA [CACACA_site5972]”, 8.96 ± 0.46.
On to “TAATTTTGTAAAAATTGTACATATTTATCTTTTTAT [XGTACX_site4305]”, for which the “gcPBM binding intensity (ln)” value stood at 8.63 ± 0.54.
“TCATATTATAAAAAATGTACAAGGAAAAAATATATA [XGTACX_site337]”: the “gcPBM binding intensity (ln)” value worked out at 8.72 ± 0.4.
For “ACATTATATAAAATATGTACACATAAATAAATAAAT [XGTACX_site5031]” the value was 9.12 ± 0.4; for “AAAAAAAAAAAAAACACACACATATAATATATTTAA [CACACA_site1337]”, 9.17 ± 0.44; for “CCTACAATTCGTAATACACACACATATATATATATA [CACACA_site9251]”, 9.69 ± 0.085.
For “TTTTTTTTTTACTTCACACATATACATTTATATTTA [CACACA_site4385]” the value was 8.78 ± 0.45; for “TAAACATACAGATACACACACACACCCACAGAGACA [CACACA_site4429]”, 10.15 ± 0.028; for “AGAATCACCAAATATGTACACACCTTAACATGTTTA [CACACA_site2068]”, 9.15 ± 0.42.
With “ATATATATGGTCATTTGTACATATCGTGAGAGCTGC [XGTACX_site4117]” the figure was 8.95 ± 0.3.
Consider “ATATAACATAATGGATGTACATGTATAAATATAAAA [XGTACX_site8228]”, for which the “gcPBM binding intensity (ln)” value was 9.15 ± 0.5.
For “TATATTATAAATTAATGTACGTAATTTTTTTTTTTT [XGTACX_site2500]” the value was 8.38 ± 0.48; for “ATAATAATATTATTTTGTACATATGTGCTTATTTAT [XGTACX_site5540]”, 9.01 ± 0.45.
With “GTATAATTTAAAAAGTGTACATAAAGTTTTTATTAA [XGTACX_site1090]” the figure was 8.46 ± 0.49; with “TTTTGTCAACATTTTTATATTAGGTCTTGAACGATT [GTGCAC_negctrl_site72]”, 8.57 ± 0.47; with “AGTAATAAGTAATTTACACACATATTATAGCATCAC [CACACA_site6971]”, 9.2 ± 0.37.
Regarding “CTTGGGCGTCATAATGAACACACAATTATATTATGA [CACACA_site9297]”, the “gcPBM binding intensity (ln)” value turned out to be 8.74 ± 0.41.
With “TTATTACCATATTTTGTACACACATCTTTATCTCAA [CACACA_site9054]” the figure was 9.3 ± 0.49; with “TATATATAAGCGCATGCACACGCAAAGGTATATAAA [CACACA_site8107]”, 9.3 ± 0.48; with “ATTATATAATCTATATGTACATATATATATATATAT [XGTACX_site4970]”, 9.44 ± 0.23.
Take “ATATATACAAATCCTTTTTTCCAAGATGGAAAAAGA [CACACA_negctrl_site382]”: the “gcPBM binding intensity (ln)” value stood at 8.38 ± 0.38.
For “AAAATAATAAATAACGCATGCGTGTGCATTTTATTC [TGCATGCA_site898]” the value was 9.29 ± 0.41; for “AGAACGACTAAGCAGTGTACATTTTGTATATACAAT [XGTACX_site2831]”, 9.13 ± 0.39; for “TTACATACATACAAGTGTACGCATATATTAATATTA [XGTACX_site4006]”, 8.79 ± 0.35.
With “ATATGTACAAGTTATACACACATGTACAGTTATATA [CACACA_site6706]” the figure was 9.2 ± 0.36.
With TTTAACATTTCAGATGTGCACATTTTCCGAACCAGT, the “gcPBM binding intensity (ln)” value turned out to be 8.91 ± 0.38.
With “ATAATGAAGACTTTTTTACACACTTCATATATTATA [CACACA_site8630]” the figure was 9.01 ± 0.4; with TGATATTTTTCCATAGTGCAAAATATAGTAATGTAT, 8.62 ± 0.49; with “TAAATGTGTATATATTGTACAAATATTAATACATAC [XGTACX_site8102]”, 8.86 ± 0.3.
For “AAATTGTTAAAAAGAAGTACATTCTTTTATTTCTTA [XGTACX_site540]” the value was 8.28 ± 0.42.
With “AAAGAACTTAATGCTGCACACAAAAAAAAGGAAAAA [CACACA_site8375]” the figure was 9.12 ± 0.45.

Values taken from the supplement of paper PMC11417369.
